Article PMC4336329 (PLoS ONE, 2015)
Among all 310,000 compounds or so, about 2,200 (0.71%) showed an effect of 50% or more. The effect is printed as a negative number. The list shows a part of the results.

These molecules were tested against human ether-à-go-go-related gene (hERG) potassium channel (human, UniProt Q12809) (assay: primary screen, population patch clamp on CHO cells stably expressing hERG).
Chain of human ether-à-go-go-related gene (hERG) potassium channel (Q12809 whole entry, looked up): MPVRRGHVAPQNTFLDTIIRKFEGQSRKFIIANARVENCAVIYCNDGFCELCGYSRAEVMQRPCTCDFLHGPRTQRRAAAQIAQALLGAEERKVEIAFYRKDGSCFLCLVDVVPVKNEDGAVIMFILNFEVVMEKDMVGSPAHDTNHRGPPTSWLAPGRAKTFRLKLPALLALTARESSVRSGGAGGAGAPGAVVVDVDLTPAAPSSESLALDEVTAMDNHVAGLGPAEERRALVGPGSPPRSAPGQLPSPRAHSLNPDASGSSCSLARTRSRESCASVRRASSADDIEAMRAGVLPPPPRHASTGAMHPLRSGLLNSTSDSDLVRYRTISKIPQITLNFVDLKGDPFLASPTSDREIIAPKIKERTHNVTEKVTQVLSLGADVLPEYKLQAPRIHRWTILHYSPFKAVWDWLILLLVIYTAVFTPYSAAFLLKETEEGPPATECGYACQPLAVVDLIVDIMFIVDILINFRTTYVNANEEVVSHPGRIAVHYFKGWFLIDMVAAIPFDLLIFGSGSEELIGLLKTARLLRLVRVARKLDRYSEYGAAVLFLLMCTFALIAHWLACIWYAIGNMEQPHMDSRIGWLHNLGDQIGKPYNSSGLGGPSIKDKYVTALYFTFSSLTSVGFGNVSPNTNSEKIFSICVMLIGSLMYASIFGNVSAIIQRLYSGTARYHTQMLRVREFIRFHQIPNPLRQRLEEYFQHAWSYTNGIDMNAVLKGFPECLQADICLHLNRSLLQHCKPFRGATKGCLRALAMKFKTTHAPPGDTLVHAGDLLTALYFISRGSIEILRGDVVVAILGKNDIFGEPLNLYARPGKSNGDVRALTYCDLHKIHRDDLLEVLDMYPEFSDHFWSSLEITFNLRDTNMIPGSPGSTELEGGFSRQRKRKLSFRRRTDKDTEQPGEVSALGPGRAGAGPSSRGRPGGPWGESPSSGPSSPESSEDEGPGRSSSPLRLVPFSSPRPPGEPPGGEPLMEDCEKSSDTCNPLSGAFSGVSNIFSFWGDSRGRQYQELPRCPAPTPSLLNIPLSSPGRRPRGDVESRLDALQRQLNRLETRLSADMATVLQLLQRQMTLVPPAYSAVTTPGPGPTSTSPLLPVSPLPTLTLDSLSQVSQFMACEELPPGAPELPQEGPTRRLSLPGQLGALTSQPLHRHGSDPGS

| SMILES | hERG current change (%, negative = inhibition) at 1uM |
| --- | --- |
| CCCn1c(NCc2ccc(C)o2)nc2ccccc21 | -9.6% |
| C/C(=N/NC(=O)CNC(=O)c1cccnc1)c1ccco1 | 14.4% |
| COc1ccc(CCN(C(=O)C(F)(F)F)C(C(=O)NC2CCCCC2)c2cccs2)cc1 (centres unmarked) | 18.8% |
| O=C(Nc1ccsc1C(=O)O)c1ccccc1Cl | 16.1% |
| Cn1cccc1/C=N\NC(=O)Cc1ccc(Br)c2ccccc12 | -2.65% |
| CCCCN(C(=O)c1ccc(S(=O)(=O)N2CCOCC2)cc1)C1CCS(=O)(=O)C1 (centres unmarked) | 3.33% |
| CCN(CC(=O)NCc1ccc(F)cc1)C(=O)Cc1c(F)cccc1Cl | -1.62% |
| COCC(=O)n1cc(C(=O)OC)c2ccccc21 | 4.26% |
| NC(=O)c1ccc(NC(=O)CSc2nnc(-c3cccnc3)n2Cc2ccco2)cc1 | 11.3% |
| Cc1cc(-c2csc(NC(=O)c3cc4ccccc4o3)n2)c(C)n1C | 0.353% |
| COc1ccc(NC(=O)c2nc[nH]c2C(=O)N[C@@H](C)C(=O)OC(C)(C)C)cc1 | 5.23% |
| Cc1cccc(NC(=O)C2CCN(c3nc(C)cc(C)n3)CC2)c1 | -5.84% |
| C=CCn1c(NCc2ccccc2)nc2ccccc21 | -9.87% |
| Cc1c(C)n(C)c2ccc(C(=O)NCCCN3CCCCC3)cc12 | 0.736% |
| CC(NC(=O)CSc1n[nH]c(=O)[nH]c1=O)C1CC2CCC1C2 (centres unmarked) | 10.8% |
| CC(=O)Oc1ccccc1C(=O)Nc1ncc([N+](=O)[O-])s1 | 6.51% |
| CC1CN(c2c3c(nc4ncnn24)CCCC3)CC(C)O1 (centres unmarked) | 13.7% |
| COc1ccccc1N1CCN(C(=O)c2ccc(S(=O)(=O)N3CCCCC3)cc2)CC1 | 10.5% |
| Cc1ccc(-c2csc3ncnc(N4CCN(C(=O)c5ccccc5)CC4)c23)cc1 | -4.95% |
| Cc1c(F)cccc1NS(=O)(=O)c1ccc2c(c1)NC(=O)CO2 | 9.68% |
| N/C(Cc1cccc2ccccc12)=N\OC(=O)c1cccs1 | 15.6% |
| CN1CCN(NC(=O)c2cccs2)CC1.Cl | 5.44% |
| CC(C)c1cc2c(c(O)c1O)[C@@]13CCCC(C)(C)C1CC2OC3=O (some centres unmarked) | -0.654% |

| SMILES | hERG current change (%, negative = inhibition) at 1uM |
| --- | --- |
| O=C(Nc1cnn(Cc2ccc(F)cc2)c1)C(c1ccccc1)c1ccccc1 | 1.78% |
| O=C1CC(c2ccccc2)CN1C(=O)c1cccnc1 (centres unmarked) | 10.8% |
| O=C(O/N=C/c1ccc(Cl)cc1)C1CCCCC1 | 11.8% |
| O=C(CSc1nnc(Cc2ccccc2)o1)NCc1ccc2c(c1)OCO2 | 10.4% |
| O=C(CCC(=O)N1CCc2ccccc2C1)NCCc1ccc(Cl)cc1 | -0.546% |
| O=C(Cn1cc(C(F)(F)F)ccc1=O)N1CCN(S(=O)(=O)c2ccccc2)CC1 | 1.04% |
| Cc1ccc(S(=O)(=O)NCC(=O)OCC(=O)NCCc2ccccc2)cc1 | 15.1% |
| COc1ccc(/C=N/NS(=O)(=O)c2ccc(NC(C)=O)cc2)cc1 | 2.08% |
| O=C(CC1S/C(=N/N=C/c2ccco2)NC1=O)Nc1cccc(Cl)c1Cl (centres unmarked) | 10.2% |
| O=C(CCc1ccccc1)Nc1ccccc1C(F)(F)F | 10.3% |
| Cc1ccc(N(Cc2ccccc2O)C(=O)c2ccccc2F)cc1 | 15.5% |
| COCCn1c(N)c(Sc2ccc(C)cc2)c(=O)[nH]c1=O | 16.2% |
| O=C(CC(c1ccccc1)c1ccco1)N1CCCCC1 (centres unmarked) | 6.99% |
| O=C(Nc1cccc([N+](=O)[O-])c1)c1ccncc1 | -7.08% |
| CCC(=O)Nc1ccc2c(c1)ncn2-c1ccc(C)cc1 | 13.6% |
| COc1ccc(N(CC(=O)N/N=C/c2cc3ccc(OC)cc3nc2Cl)S(=O)(=O)c2ccccc2)cc1 | 7.26% |
| CCC(C)NC(=O)Cc1ccc(-c2ccccc2)cc1 (centres unmarked) | 13% |
| Cc1csc(NC(=O)NCC2CCCC(CNC(=O)Nc3nc(C)cs3)C2)n1 (centres unmarked) | 17.7% |
| CN(CC(=O)Nc1cccc(F)c1)CC(=O)N1CCc2ccccc21 | -7.9% |
| CC(CCc1ccccc1)NC(=O)C(Cc1ccccc1)NS(=O)(=O)c1cccs1 (centres unmarked) | 17.3% |
| COc1ccc(N(CC(=O)NCc2ccc(F)cc2)C(=O)c2snc(C(N)=O)c2N)cc1 | 12.9% |
| CCCCN(C(=O)CC(c1ccccc1)c1ccccc1)c1c(N)n(CCC)c(=O)[nH]c1=O | 12.1% |
| CCOc1ccc(S(=O)(=O)N(CC)CC(=O)NCc2ccncc2)cc1 | 10.2% |

| SMILES | hERG current change (%, negative = inhibition) at 1uM |
| --- | --- |
| COc1ccc(-n2c(=O)c(CCC(=O)NCCc3ccccc3F)nc3ccccc32)cc1 | 8.72% |
| CC(=O)Nc1cccc(-c2nc3ccccc3s2)c1 | 1.52% |
| Cc1noc(C)c1CSCC(=O)Nc1ccccc1N1CCCCC1 | 6.77% |
| O=C(c1ccccc1)N1CCN(C(=O)c2ccc3c(c2)OCO3)CC1 | 15.6% |
| COc1ccc(C2c3ccc(O)cc3Oc3ncn(Cc4ccco4)c(=N)c32)cc1 (centres unmarked) | -43.5% |
| COc1cc(/C=C2/SC(=S)N(CC(=O)NC(C)(C)C)C2=O)cc(OC)c1OC | 9.01% |
| COc1ccc(NC(=O)CN(C2CCCCC2)S(C)(=O)=O)cc1OC | 8.91% |
| O=C(COc1ccccc1N1C(=O)C2C3C=CC(C3)C2C1=O)c1ccccc1 (centres unmarked) | 14.4% |
| Clc1ncccc1-c1nnn(-c2ccccc2)n1 | 10.9% |
| O=C(Cn1ccc(NC(=O)OCc2ccccc2)nc1=O)NCCc1c[nH]c2ccccc12 | 11.3% |
| C1CCN=C(Nc2nn[nH]n2)CC1 | 16.2% |
| CCOc1cccc(CNCCCSc2ncccn2)c1.Cl | 2.55% |
| COc1ccc(NC(=S)NCc2ccc(S(N)(=O)=O)cc2)cc1OC | 19% |
| N#CCCn1cc(/C=C2\NC(=S)N(c3ccccc3)C2=O)c(-c2ccc(F)cc2)n1 | 11.2% |
| Cc1ccc(S(=O)(=O)NNC(=O)C(=O)NNS(=O)(=O)c2ccc(C)cc2)cc1 | 4.61% |
| COc1ccccc1-c1ccc2nnc(SC)n2n1 | 14.8% |
| Cc1ccc(SCCC(=O)OCC(=O)Nc2ccc(S(N)(=O)=O)cc2)cc1 | 16% |
| CC1(C)CC(=O)N(c2ccc(Cl)c(Cl)c2)C(=O)C1 | 4.25% |
| CC(=O)Nc1cccc(NC(=O)c2c(-c3ccccc3Cl)noc2C)c1 | 3.96% |
| COc1ccc(NC(=O)C(=O)NCC(c2ccco2)N2CCc3ccccc32)cc1 (centres unmarked) | 8.78% |
| Cc1nc2nc(C)c(NS(=O)(=O)c3ccc(C(C)(C)C)cc3)c(=O)n2[nH]1 | 10.8% |
| CC1(C)Cc2nc3sc4c(=O)n(CC(=O)NCc5ccccc5)cnc4c3cc2CO1 | 3.82% |
| CC1CCCCN1C(=O)COC(=O)c1ccc(=O)n(Cc2ccccc2)n1 (centres unmarked) | 3% |

| SMILES | hERG current change (%, negative = inhibition) at 1uM |
| --- | --- |
| O=C1CN=C(c2ccccc2)c2ccccc2N1 | 12% |
| COc1ccc(C(=O)NCc2nnc(SC)n2C2CCCCC2)cc1 | 9.35% |
| COc1ccccc1N1CCN(C(=O)c2ccc3nc(-c4ccco4)c(-c4ccco4)nc3c2)CC1 | 7.79% |
| CSc1cccc(NC(=S)N(CCCN2CCCC2)Cc2cccs2)c1 | -17.9% |
| N#Cc1ccc(/C=C/C(=O)c2ccco2)cc1 | 5.85% |
| O=C1CC2(CCN(C(=O)C(=O)c3c[nH]c4ccccc34)CC2)Oc2ccccc21 | -0.76% |
| CCCCc1ccc(N=N/C(C(=O)Nc2ccc(NC(C)=O)cc2OC)=C(/C)O)cc1 | 8.33% |
| CCOC(=O)Cc1csc(NC(=O)c2cccc(N3C(=O)CCC3=O)c2)n1 | 5.7% |
| COc1ccc(-c2nc(SCC(=O)N(CC(C)C)c3c(N)n(Cc4ccccc4)c(=O)[nH]c3=O)n[nH]2)cc1 | 1.09% |
| CCCC/C=C/C(NC(=O)CCc1ccccc1)c1ccccc1 (centres unmarked) | 1.65% |
| C=CCc1cc(Cl)ccc1OCCCn1ccnc1.O=C(O)C(=O)O | 7.27% |
| COC(=O)COc1ccc(/C=N/NS(=O)(=O)c2ccccc2)cc1 | 15% |
| Cc1ccc(SCCCCN2CCNCC2)cc1.O=C(O)C(=O)O | 1.74% |
| N#C/C(=C\c1ccncc1)c1nc2ccccc2o1 | 11.2% |
| COc1ccc(/C=N/NC(=O)c2ccc3c(c2)OCCO3)c(OC)c1 | 16.3% |
| CCOc1ccccc1CNC(=O)C1CCN(c2nn3c(=O)cc(C)nc3s2)CC1 | -0.921% |
| COc1ccc(N2C(=O)c3cccc4cc(Br)cc(c34)C2=O)cc1 | 4.08% |
| CCNC(=O)COn1c(SCC(=O)NCC)nc2ccccc2c1=O | 13.2% |
| O=C(N/N=C/c1cc2c(cc1[N+](=O)[O-])OCO2)c1ccccn1 | 10.1% |
| Cc1ccc(-c2nnn(CC(=O)N(CC3CCCO3)C(C(=O)NC3CCCC3)c3ccc(F)cc3)n2)o1 (centres unmarked) | 18.4% |
